Measurements taken from the RNAGym collection of RNA variant scans (doi:10.7554/elife.90254).
Read counts are not given, so values of variants with three or more changes are uncertain.

B1: LINE1-mini (parent)
chain: GGCAGAGCUCAACACAGCGUGGCAAAGUGGCUGUGGCUAGACUGCC

Variants of: B1
Test: self-cleavage, relative activity (ratio to wild type); higher = more cleavage; in vitro, sequencing; the parent is a self-cleaving ribozyme

Variant	self-cleavage
G21A A25U G40U A41U	1.51
C13U A16U G33A C37U	0.26
U9G C18U C23U G29A	0.11
A11G G19A G21C C42U	0.01
C13U A16U U38G A39G	0.16
G5A U9A G29U U38C A39C	0.11
U9G G17A U28G C42U	0.03
G1U A6G A41C C45A	0
C31U G33A U34A	0.06
G7C G40A G44C	0.05
C15U A39C G44C C45G	0.02
G21C C23A C46A	0.08
C10G C18G C31A C46A	0.01
C3U C10A C13G G27U G33U	0.01
G21C G29U G35C G40U	0.03
C3G A14C G21C G27C G35U U38C C45A	0.01
G22A G30C U43A	0.02
G22U G36C G44U	0.09
U9G A24U A25C U34C	0
C10U C18U G19A C46U	0.2
A11U A12U A25U C31A	0.04
G7A A26U G35U	0.12
G1C G29A G33C	0.01
A16U G19C G36A	0.1

Variant	self-cleavage
A14C G17U C23G	0
G2U U9C U43C C45U C46U	0.01
A6C C13G A14U G19U	0.03
A11G G29A C31G G40C	0.01
G1A G17A G29U	0.05
G1U C18A A26G A41G	0.02
U9C A26C U28A U38A	0.03
C18G U28G U32G	0.04
A14C A16C A25C A39C	0.07
G1A C18A A24C C37U	0.1
C3G G33C A41C	0.02
A12G G36A A39G	0.03
C3G U9G G19U U43C	0.04
C31A G36C C37G	0.03
C15A G21U G33U	1.03
C8U G21C U43A G44A	0
C3U G17A C18U G29U G35A	0.03
A16G U34G C42A G44A	0.02
A12U A14G A24C G36A C37U G44U	0
G2U G7U G22A G27C	0.03
A6U C37A A39U	0.11
U20A A25C G30C	0.97
G33U U38A A41G C42A	0.09
C10A A39G C45U	0

Variant	self-cleavage
A26G A39U C42A	0.02
G2U C8U A14U	0.05
G1A A12U C37U	0.01
U32G G36U C45U	0.03
C18A G22U C31G G36A	0.09
G2C G36A G40C	0.21
G5U G27U C42A C46U	0.13
C15A C31U C42U	0.04
C3A A12C G40A U43C	0.01
C3A U38C G44A	1.5
G1A A24G A41U	0.33
A4C G5A G40A	0.05
C3A A16C U28A	0.56
A6U U20A C23U G35C	0.1
A6U C8A G40C C42U	0.06
G19U G21U G35A G44U	0.01
G2C C8G C31A G35U G40U U43G	0.01
C13U G21C C23A C42G	0.23
C10U A14G C18U G36A A41G C45G	0.03
G2U C23U A25G	0.03
G5U A6C G29U G35A	0.22
U9G G29C A39C	0.02
C15A G29C C37U	0.02
C3A U9C G22C C42A	0.01

Variant	self-cleavage
C3A C13U C31A	0.25
G1U C13A G17A	0.09
G2A C3G A16G G22U G33A	0.04
C8U C15A G33A	0.18
C15A G17C C18G A24U A25U	0.01
G5A U9A U20C G30U G35A C37U U43A	0
G5U C15A G30C C31G	0.03
C3G G7C G33U U34A C37U	0.02
C13U A26C U43C	0.02
C3A G33C U43C	0.07
A4C C10A G17A C18A G22C G33A	0.01
G2A A11U A24U G35A	0.01
A16C G33A C45G	0.04
C15U U28G G40C A41C	0.02
G5U C10U C13U A14C	0.02
A12C C37G C46A	0
G2U U38C A39C C45A	0.01
G1U C10U G17C G36A G40A U43A	0
A4U U28A C31G G33C U34G	0.03
G5C C8U G44A	0.25
G1C C15U G22A G29A	0.18
C3A G5C G29C C31U	0.26
G2U C13U A14C G35U	0.02
G5U C10A C13U G22U C37U	0.03

Variant	self-cleavage
G19U A25U G44C	0.95
C10U G17A G29U	0.02
A4U A16C G33C	0.01
G29A C31A A39C	0.18
G19A U32C C37A G44A	0.01
U9C A14U U20A G33A G44A	0.05
C18U U43C C46A	0.12
C10A C18A A26C C42G G44C	0
C15U G44C C46U	0.06
A6C G22U C46A	2.05
C10A A24U G36A C42G	0.02
G2A G35U A39G	1.14
C10A A14U G30C C46A	0.01
G5U G7U A11U G21U	0.02
G7U A11U A16U C45U	0.02
G7A A11C G27C	0.03
A4G G7C A14U G27A	0.1
G5U A26U C42U	0.03
A4G C10G A12C	0
A6C U32C G36A U38C	0.01
A6G G30U C45A	0.02
A12C G21U G40U	0.02
C15A G36A A39C C46U	0.19
G22A U28C C46G	0.53

Variant	self-cleavage
G1U C10A G22U G36U G44A	0
C10A A12C G29U	0.03
G1U G19A A26C A41C C42A	0.01
C18A A24G U38C	0.13
G5U A14G G17A C18A C23U A24U	0.03
G2A A6U C15A	0.25
G2A C3A C42U	0.84
U9A C13A U38C	0.09
U9A A12C A26U	0
A4U A16G G30U G33A	0.01
C10G G30A U34A	0.01
A14U C42U C45A	0
G1U G29U G44A	0.3
G7A G21C G27U	0.05
C3A A26G U32G U34G	0.13
G2A C23G U38C	0.2
C15G G19C G21U	0.03
A4G C37A A41U C45A	0.07
G5U C15A C37U	0.02
A4C A11C A26C G27U C46A	0.06
A4G C23A G27A G30U C45A	0.08
A4G A16U A25C	0
A26U C31G C42U	0.02
A12C G33U U34C	0.02

Variant	self-cleavage
G1C A24C C45U	0.11
A12C A25C G27A G29A	0.01
A6C C8G U20C G35C	0
A4U C10G C13U C23G C37G	0.03
A4C C18U G30C A39U	0.23
C3G U20G G21U C46U	0.77
G7C A26C C31G U32C C37A	0.01
U9A C10U G36C C46G	0.02
A6C A26C G33U C45G	0.02
G17A G19A A24C C37U A41C	0.01
A6U C23U U32A U34G U38C	0.03
A4G A25U G27U C42G	0.02
C3U G27U A39U	0.06
G2C G36A U38C A41C	0.01
G2C G36U A41C	0.12
C23G G35U C46G	0.08
C8G U9A C31A C42A	0.06
G5U C15G C45A	0.04
C3A G19C A25U G27U C31U C37A	0.23
G2U G7C C10U G30C	0.02
C3U G17A G35A	0.02
C8G G36U G40C	0.04
G2C A14G G22A	0.05
